# Reference: the supplement of paper PMC7335073
# In all, about 4,100 sequences were measured (“relative CpG methylation activity (normalised to average over all NNNCGNNN flanks)”: median about 0.94, highest 2% from about 1.9 on). Some of the results follow.
# Target: DNMT3B catalytic domain (mouse) (UniProt O88509)
# Assay: relative CpG methylation activity (normalised to average over all NNNCGNNN flanks) (relative (1 = mean)); higher = more methylation of the central CpG
# Conditions: system: in vitro, murine catalytic domain; CpG state: hemimethylated substrate pool; residues: 558-859
# Summary of the method: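 For Illumina sequencing, DNA was processed by proteinase K, BsaI-HFv2 digestion, hairpin ligation, bisulfite conversion and two-step PCR after methylation by murine DNMT3A or DNMT3B catalytic domain. The methylation reaction contained 0.8 mM S-adenosyl-L-methionine in HEPES pH 7.5 buffer and ran at 37 °C for 60 min on pooled dsDNA substrates with a central CpG inside 10 random flanking nucleotides. Relative methylation activity was computed as the average methylation of each flanking context divided by the mean over all contexts. Contexts covered three flanking bases per side, and there were two independent repeats per experiment.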
# UniProt O88509, sequence (O88509 558-859): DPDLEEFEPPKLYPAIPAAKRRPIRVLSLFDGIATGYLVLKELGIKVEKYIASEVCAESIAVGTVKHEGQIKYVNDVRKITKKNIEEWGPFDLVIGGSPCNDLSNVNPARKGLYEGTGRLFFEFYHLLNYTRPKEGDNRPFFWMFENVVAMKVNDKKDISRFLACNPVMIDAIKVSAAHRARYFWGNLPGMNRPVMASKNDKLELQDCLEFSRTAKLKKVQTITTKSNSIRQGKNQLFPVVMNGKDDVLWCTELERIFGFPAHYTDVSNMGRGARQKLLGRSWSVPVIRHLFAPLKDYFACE
row,Sequence,relative CpG methylation activity
1,GTGCGCGT,0.649
2,GGCCGGAC,0.442
3,GGCCGGGG,0.595
4,GGTCGGCG,1.72
5,CCTCGGAT,0.856
6,CATCGGTG,1.16
7,GGTCGTAA,0.259
8,CGTCGACT,1.31
9,ATCCGATA,1.59
10,TAACGGCC,1.71
11,ATGCGCGA,0.692
12,GTCCGAGA,1.59
13,CTGCGTGT,0.723
14,ACGCGCAG,0.356
15,GTACGTGT,0.932
16,AAGCGGTG,0.509
17,GTGCGGGA,1.15
18,ACGCGCCT,1.13
19,TATCGTGG,0.171
20,GCCCGTGA,0.56
21,GCCCGTGT,0.369
22,TAACGCCT,1.35
23,ATTCGCAG,0.453
24,AGCCGGCA,0.995
25,ACGCGTGC,0.401

row,Sequence,relative CpG methylation activity
1,GCACGTCA,0.98
2,GAACGTGT,0.529
3,AACCGCGG,0.183
4,AAGCGCCT,0.713
5,TTACGTTG,1.29
6,TTACGAAC,1.96
7,CATCGCGC,0.853
8,TGGCGTAG,0.307
9,CTGCGTCT,1.11
10,ATTCGCAC,0.727
11,GAACGGAA,1.13
12,CTACGGGA,1.91
13,AGTCGAAG,1
14,GGTCGTAT,0.496
15,GTTCGAAC,1.73
16,TTCCGTGA,0.444
17,ATACGACG,1.61
18,CAACGTAG,0.841
19,GTCCGAAA,1.26
20,CGTCGACG,0.922
21,TATCGCTT,0.715
22,TACCGCGA,0.342
23,TTACGCTT,1.88
24,GTACGAGC,1.83
25,AGGCGTTG,0.0369

row,Sequence,relative CpG methylation activity
1,CCTCGGCC,1.66
2,GACCGGCG,1.53
3,TACCGCTA,0.483
4,ATGCGGAT,0.873
5,TTGCGAGA,1.44
6,TTCCGACC,1.75
7,TTGCGGAG,0.803
8,GAGCGCTG,0.635
9,TTGCGCCT,1.12
10,TTTCGCCG,1.43
11,GCCCGATA,1.41
12,AGACGTTA,0.669
13,CGACGTGG,0.431
14,CGCCGCTC,0.554
15,ACCCGCAC,0.757
16,TACCGACA,1.2
17,GGACGCCC,0.916
18,CGCCGCCC,0.44
19,TCGCGGGT,0.741
20,ACGCGCTA,0.545
21,GCTCGTTT,0.503
22,CCACGGCG,1.86
23,TGACGGAG,0.84
24,TTACGAGC,2.09
25,GCCCGCGG,0.453

row,Sequence,relative CpG methylation activity
1,CGGCGGAT,0.283
2,AGGCGTGT,0.104
3,ACTCGTCT,0.63
4,TACCGCCC,0.778
5,TGACGATC,1.42
6,TACCGGTC,1.22
7,GTTCGGAC,1.37
8,TACCGTAT,0.29
9,GACCGCTC,0.572
10,GCGCGATA,1.14
11,TTCCGTAA,0.531
12,AACCGCTG,0.32
13,CTACGAAT,1.56
14,CCGCGCGT,0.602
15,CGTCGCCG,0.81
16,TGCCGGAT,0.435
17,ACGCGAGT,1.05
18,GTACGCTG,1.17
19,CCACGCTT,1.13
20,GGTCGACA,0.906
21,CGCCGCGT,0.252
22,GTCCGATG,1.16
23,GCGCGATG,0.905
24,TAGCGGGT,0.833
25,CTACGTTT,1.59

row,Sequence,relative CpG methylation activity
1,ATTCGGCC,2.04
2,TTCCGGGA,1.43
3,CAGCGAAC,0.981
4,CTCCGAGC,2.06
5,GTCCGGGC,1.53
6,CATCGGGA,1.68
7,GGGCGTTA,0.156
8,GTCCGACA,1.26
9,TTCCGAAC,1.89
10,TTGCGCTA,0.677
11,TCGCGGAA,0.635
12,GTGCGTCT,0.797
13,ATACGGAT,1.46
14,ATCCGGCG,1.82
15,GTCCGTGC,0.758
16,CGCCGCCT,0.572
17,TGGCGCAG,0.179
18,CATCGCCG,1.12
19,TTGCGCAC,0.917
20,GGCCGATA,1.01
21,CTTCGGGT,1.33
22,AGTCGCCT,1.07
23,TGCCGCTC,0.685
24,ATCCGCGT,0.671
25,GTACGCTA,1.23

row,Sequence,relative CpG methylation activity
1,CTGCGAAG,1.12
2,AGCCGCTT,0.239
3,GAACGGAG,0.885
4,AGCCGAGA,1.25
5,AGACGCAA,0.525
6,GTTCGGTT,1.1
7,GAGCGTGC,0.641
8,CACCGAAT,1.09
9,AAACGGCG,1.68
10,TTACGACT,1.72
11,TTGCGTCA,0.789
12,CCACGAGG,1.49
13,TAGCGTGA,0.345
14,GTCCGCGG,0.8
15,GACCGCCT,0.517
16,GTTCGGCC,1.81
17,CGACGCCG,1.05
18,CCCCGTGG,0.244
19,GTGCGGTT,0.943
20,TCACGGGC,1.62
21,CTACGGGC,1.75
22,AGTCGCTC,1.06
23,GATCGTTG,0.455
24,ACGCGGGA,1.09
25,GTTCGGTA,1.17

row,Sequence,relative CpG methylation activity
1,TCGCGCAC,0.399
2,GACCGAGA,1.25
3,AAGCGTCG,0.521
4,GTGCGATC,1.16
5,GGCCGGAT,0.26
6,ATACGTCC,1.54
7,GCCCGCAG,0.312
8,TAGCGGTT,1.07
9,TGGCGGGC,0.931
10,GCTCGATC,1.42
11,GGTCGACC,1.11
12,TGTCGAAT,1.03
13,ATGCGTCG,0.764
14,TGGCGGGG,0.595
15,TGCCGCGA,0.26
16,TAGCGGTG,0.473
17,CCACGATG,1.42
18,GTGCGGTA,1.2
19,CTGCGCCA,1.17
20,GGACGTAA,0.527
21,CATCGCTA,0.882
22,GCGCGCTT,0.847
23,GCTCGTCA,0.561
24,AGGCGCTT,0.466
25,ATCCGCAG,0.458

row,Sequence,relative CpG methylation activity
1,GCACGTAA,0.823
2,TAGCGCGG,0.469
3,TAACGTGT,0.627
4,CTGCGAAC,1.27
5,ACGCGCGC,0.797
6,GCTCGTAC,0.896
7,GGGCGATG,0.887
8,CGTCGTCA,0.438
9,ATCCGAAT,1.3
10,GCACGAGG,1.46
11,ACGCGATT,1.09
12,TGGCGGTC,0.896
13,CGTCGTAG,0.204
14,TGACGCGC,1.12
15,CCCCGCAC,0.866
16,AAACGCCT,1.49
17,GGGCGAAG,0.305
18,CCACGTCA,1.24
19,GATCGTGA,0.133
20,GACCGTGG,0.126
21,GCGCGAGA,1.07
22,CGACGATC,1.6
23,CGGCGCAA,0.2
24,GAGCGAAG,0.643
25,ACCCGGTT,1.29

row,Sequence,relative CpG methylation activity
1,GGGCGACA,0.726
2,GCCCGTAG,0.248
3,GATCGGGC,1.45
4,CCACGAGC,1.84
5,TCGCGGCG,1.53
6,GGTCGCAG,0.192
7,ATTCGAGG,1.29
8,AGCCGTCA,0.3
9,GCGCGGGC,1.12
10,GAGCGTAG,0.699
11,TTTCGGAC,1.24
12,TGTCGTTT,0.256
13,TGGCGACT,0.685
14,CACCGGGC,1.16
15,AGCCGGAG,0.191
16,ATCCGACC,1.51
17,ACTCGCGT,0.486
18,AAACGTGC,0.89
19,TACCGAAC,1.23
20,TAGCGCTT,0.668
21,TCGCGCGA,0.389
22,TAACGTTA,0.816
23,ACACGCGT,0.999
24,TCACGTAT,1.1
25,CGGCGCTT,0.53

row,Sequence,relative CpG methylation activity
1,ATCCGAGA,1.4
2,CAACGTTT,0.764
3,CTGCGATT,1.43
4,CGACGGTC,1.18
5,TGTCGCGC,0.698
6,GTACGAGG,1.56
7,CAACGCGG,1.11
8,AGGCGAGT,1.07
9,ATACGTAC,1.5
10,GCTCGGCT,1.85
11,CAACGTAA,0.917
12,TTTCGTGC,0.994
13,CGACGTTT,0.532
14,TCGCGTTA,0.51
15,GGGCGTAA,0.252
16,ACTCGACT,1.23
17,TCGCGACA,1.05
18,GTTCGCTA,0.524
19,GTTCGTTC,0.845
20,CGACGGTG,1.06
21,GTTCGTTG,0.375
22,TGTCGAAC,1.46
23,TTGCGCTT,1.04
24,TGGCGAAC,0.647
25,CTACGATA,1.97

row,Sequence,relative CpG methylation activity
1,AGTCGGAA,0.907
2,TAGCGTAC,0.727
3,TCGCGCGC,0.708
4,CTGCGGTT,1.07
5,TCCCGTAC,1.11
6,ACGCGCCA,0.83
7,CGTCGTGT,0.248
8,TCGCGAGA,1.2
9,GTTCGGAG,0.641
10,ATGCGTTC,1.12
11,GAACGGCC,1.81
12,CGCCGCAA,0.297
13,CAGCGGCG,1.46
14,CAACGAGT,1.47
15,ATACGGGT,1.73
16,GTCCGACG,1.11
17,TCCCGGCG,1.87
18,ACACGCAT,0.84
19,CATCGTTG,0.266
20,ATGCGCTG,0.604
21,CTACGCGG,1.44
22,ACTCGGTG,1.04
23,ACACGGAG,0.823
24,ATTCGGAA,0.809
25,GGGCGCTG,0.265

row,Sequence,relative CpG methylation activity
1,CGCCGTGT,0.205
2,ATTCGGGG,1.58
3,TAACGCAC,1.19
4,CCACGCAG,0.819
5,ATGCGATC,1.48
6,TCGCGGCA,1.5
7,ACACGACT,1.55
8,CATCGCAA,0.511
9,TCACGGGA,1.63
10,AAGCGAGC,1.16
11,TTGCGGCC,1.43
12,CTACGCGA,1.17
13,GGACGACG,1.01
14,TTCCGTTA,0.945
15,AATCGTAA,0.31
16,CCGCGACC,0.94
17,CGGCGAAT,0.68
18,GGACGACC,0.944
19,AAACGTTC,1.12
20,ATGCGAGG,1.27
21,ATACGCCT,1.5
22,ATGCGATA,1.4
23,CACCGCCT,0.622
24,CTGCGTGA,0.833
25,GGGCGGCG,1.15

row,Sequence,relative CpG methylation activity
1,ATACGTGT,0.879
2,CACCGATT,1.39
3,GTACGAGA,1.79
4,CCTCGAGT,1.5
5,TAACGGGC,1.53
6,TCTCGGTG,0.921
7,GGACGATC,1.74
8,TTTCGTTA,0.586
9,CGCCGAAT,0.81
10,GTTCGTAT,0.477
11,TCACGTGA,0.545
12,AGGCGAGA,0.85
13,CCACGTCG,1.1
14,TGCCGCAC,0.36
15,TCGCGATG,0.762
16,TACCGGAA,0.571
17,GAGCGGGC,1.1
18,TCTCGAGA,1.96
19,CGCCGGTT,1.12
20,CGACGCTA,0.732
21,AGCCGAGG,0.855
22,CTACGATT,1.83
23,GGGCGTCT,0.272
24,GCTCGTCC,0.759
25,ATACGAGC,1.87

row,Sequence,relative CpG methylation activity
1,TATCGCAT,0.37
2,AGCCGCCG,0.444
3,ATCCGGCC,1.48
4,ATACGGCT,1.89
5,CAACGCCA,1.42
6,TAGCGTTT,0.454
7,TCTCGGCG,1.57
8,CCACGTAC,1.38
9,CAGCGAGA,0.963
10,CCACGGCC,1.7
11,CAGCGACT,0.883
12,GAGCGTTG,0.5
13,TTACGTAT,1.19
14,GGACGTGA,0.369
15,GTCCGGTC,1.78
16,GGCCGATG,0.926
17,CTACGCAC,1.59
18,CTCCGGTG,1.69
19,AGCCGGGG,0.556
